Data reported in PubChem BioAssay AID652106 (National Center for Advancing Translational Sciences (NCATS), 2013).
In all, about 370,000 compounds went through this assay and about 500 (0.14%) were called active. Inconclusive results, whose numbers are uncertain, are shown with a selection of clear calls. Calls follow the shape of the dose curve; as a rule, active = well fitted activation curve with a large enough effect; inconclusive = small, poorly fitted or top-dose-only effect; inactive = no such curve, though single readings can be large or run the other way. No potency is given beside an inconclusive call; the fits are too rough.

Assay: qHTS of alpha-syn Inhibitors; also: nearly all actives have a fitted effect of over 65% in size; as to growth rescue (activation): % of control where 0% means no effect
Details: Yeast expressing alpha-synuclein, BacTiter-Glo, 24 h; Potency: growth rescue unless noted; growth rescue (activation): at 46.1 µM (top of the series) unless noted
How it was run: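 Screening used galactose-induced yeast with toxic alpha-synuclein levels, exposed to compound for 24 hr at 30 deg C. Cell growth, read with BacTiter-Glo luminescence, gave the measured signal.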
Potency is read from the fitted curve at half-maximal effect; tags tell the direction and shape of the fitted curve.

Structure (SMILES)	Potency	growth rescue (activation)
CC(=O)N(c1ccc2ccccc2c1)C1SC(=O)N(c2cccc(C)c2)C1=O (centres undefined)	inconclusive [activator, single point]	–
COc1ccc(C(=O)OC(C)C(=O)NC2CCCC2)cc1S(=O)(=O)N1CCOCC1 (centres undefined)	inconclusive [activator, single point]	–
COc1ccc(OCC(=O)Nc2ccccc2N2CCCCC2)cc1	inactive	–
COc1ccc(CNC(=O)CN=C2NC(=O)C(c3ccccc3)(c3ccccc3)N2)cc1	inactive	–
CCCc1nc2c(ccc3ccccc32)cc1CC	inconclusive [activator, single point]	–
Clc1ccccc1CSc1cnnc2ccccc12	inconclusive [activator, full curve]	–
CC(C)=C1SC(N2CCOCC2)=NC1=O	inactive	–
COc1ccc(OC)c(NC(=O)c2nc(S(=O)(=O)Cc3ccccc3F)ncc2Cl)c1	inactive	–
CCc1ccc(C(=O)C(C)OC(=O)Cn2[nH]c(=O)c3ccccc3c2=O)cc1 (centres undefined)	inconclusive [activator, single point]	–
CC(C)(C)NC(=O)C1c2ccccc2OCC(=O)N1CCc1ccccc1 (centres undefined)	inconclusive [activator, single point]	–
O=C(Nc1cccc(NC(=O)c2c(F)cccc2F)n1)c1c(F)cccc1F	inactive	–
O=C(CCCSc1ccccc1)Nc1nc(-c2ccccn2)cs1	inconclusive [activator, single point]	–
O=Cc1c(Cl)nc2ccccn12	inactive	–
O=C1Nc2ccccc2N=C(c2ccc3c(c2)OCO3)C1N(CCc1ccccc1)C(=O)CSc1ncccn1 (centres undefined)	inconclusive [activator, single point]	–
COc1ccccc1N1CCN(C2CC(=O)N(c3cccc(Br)c3)C2=O)CC1 (centres undefined)	inactive	–
CC1c2ccccc2-c2ccccc2N1C (centres undefined)	inconclusive [activator, partial curve]	–
CCc1ccc(C2NC(=S)NC3=C2C(=O)N(c2ccccc2OC)C(c2ccc(CC)cc2)N3)cc1 (centres undefined)	inactive	–
Cc1cn([C@H]2C[C@H](O)[C@@H](CNCc3ccc4ncccc4c3)O2)c(=O)[nH]c1=O	inactive	–
Cc1ccccc1NC(=O)c1ccccc1NC(=O)Cc1cccc2ccccc12	inconclusive [activator, single point]	–
CC(=O)NC(c1ccc(F)c(F)c1)c1nc(-c2cnn(C)c2)cs1 (centres undefined)	inconclusive [activator, single point]	–
Cc1cc(C(=O)c2ccccc2)c(NC(=O)CCl)s1	inconclusive [activator, single point]	–
CC(C)NC(=S)N/N=C/c1cc(Br)ccc1O	active: 17.8 µM	–
CCCCN(C)CCNC(=O)CCNC(=O)Cn1ccc2ccccc2c1=O	inactive	–

Structure (SMILES)	Potency	growth rescue (activation)
O=C(CSCc1ccccc1)N1CCN(c2cccc(C(F)(F)F)c2)CC1	inconclusive [activator, single point]	–
CCOc1ccc(/C=C2\SC(=S)NC2=O)cc1OC	inactive	–
CSc1cccc(NC(=O)C2CCN(S(=O)(=O)c3ccc(F)cc3)CC2)c1	inconclusive [activator, single point]	–
Cc1oc(-c2cccs2)nc1CS(=O)CC(=O)NCCc1ccccc1 (centres undefined)	inconclusive [activator, single point]	–
O=C1Nc2ccccc2/C1=C/c1ccnc2ccccc12	inconclusive [activator, single point]	–
COC(=O)c1[nH]c2c(c1C)C(=O)CC(c1ccc(OC)c(OC)c1)C2 (centres undefined)	inconclusive [activator, single point]	–
CC(=O)c1ccc(NC(=O)CN2CCC(NC(=O)c3ccccc3C)CC2)cc1	inconclusive [activator, single point]	–
CCOC(=O)C1(C)CCN1C(=O)c1oc2ccccc2c1C (centres undefined)	inactive	–
CCCCN(C=O)c1c(CC)nc2c(OCc3ccccc3C)cccn12	inconclusive [activator, single point]	–
Cn1nc([N+](=O)[O-])c(C(C#N)c2ccccn2)c(Cl)c1=O (centres undefined)	inconclusive [activator, single point]	–
CCN1C(=O)C(CC(=O)NCCc2ccccc2)N(NC(=O)c2ccc(Br)cc2)C1=S (centres undefined)	inconclusive [activator, single point]	–
O=C(NC(=S)Nc1ccccc1C(=O)O)c1cncc(Br)c1	inactive	–
CCOc1ccccc1NC(=O)C(=O)N/N=C/c1cc(Br)ccc1O	inconclusive [activator, partial curve]	–
CCOC(=O)CNC(=S)N(Cc1ccccc1F)C1CCCCC1	inactive	–
COc1ccc(-c2csc(NC(C)c3nc4cc(Cl)c(Cl)cc4n3CCCO)n2)cc1 (centres undefined)	inconclusive [activator, single point]	–
CCOc1ccc(OCCn2nnc3ccccc3c2=O)cc1	inconclusive [activator, single point]	–
C=CCOc1ccccc1/C=c1\sc2nc(=O)c(C)nn2c1=O	inconclusive [activator, full curve]	–
CCOC(=O)[C@]12CCC=C1N(CCC1=CCCCC1)C(=O)[C@H](CC(=O)NCc1cccc(C(F)(F)F)c1)C2	inconclusive [activator, single point]	–
COc1ccc2ncccc2c1Cc1c(OC)ccc2ncccc12	inconclusive [activator, partial curve]	–
O=C(CCS(=O)(=O)c1nc(-c2cccs2)cc(C(F)(F)F)n1)Nc1cc(Br)ccc1O	–	inconclusive: 30.1% [activator]
CCCNC(=O)C1(C)CCCN(C(=O)c2ccc3sccc3c2)C1 (centres undefined)	inconclusive [activator, single point]	–
CC(=O)N1c2ccc(C)cc2Sc2c1ccc1ccccc21	inconclusive [activator, partial curve]	–
CCC(C(=O)NC1CCCC1)N(Cc1cccs1)C(=O)Cn1nnc(-c2ccc(OC)c(OC)c2)n1 (centres undefined)	inconclusive [activator, single point]	–

Structure (SMILES)	Potency	growth rescue (activation)
COc1cc(C)ccc1OCc1cc(C(=O)NC(c2ccccn2)C(F)(F)F)no1 (centres undefined)	inactive	–
O=C1S/C(=C/c2ccccc2F)C(=O)N1CCN=C1NS(=O)(=O)c2ccccc21	inactive	–
Cc1cccc(OCC(=O)Nc2cc(Cl)ccc2-n2cncn2)c1C	inconclusive [activator, single point]	–
Cc1cccc(NC(=O)c2cc3n(n2)C(C(F)(F)F)CC(c2ccc4c(c2)OCO4)N3)c1 (centres undefined)	inconclusive [activator, single point]	–
CCN1C(=O)[C@H]2[C@H]3CN=C(SC)N3[C@@](Cc3ccccc3)(C(=O)OC)[C@H]2C1=O	inconclusive [activator, single point]	–
CSc1cccc(NS(=O)(=O)c2cccc3nsnc23)c1	inconclusive [activator, single point]	–
COc1cccc(-c2cnc3c(NC=O)cc(-c4ccccc4Oc4ccccc4)cn23)c1	inconclusive [activator, single point]	–
CC(=O)c1ccc(Cc2ccc(C(C)=O)s2)s1	inconclusive [activator, single point]	–
CC1(C(=O)NS(=O)(=O)c2ccccc2OC(F)(F)F)CCN1C(=O)Cc1ccccc1 (centres undefined)	inactive	–
Cc1cc(C)nc(N/C=C(\C#N)C(=O)c2cccc(CSc3ccccc3)c2)n1	inconclusive [activator, single point]	–
CCOC(=O)Nc1ccc2c(c1)N(C(=O)CCN(CC)CC)c1ccccc1CC2	inconclusive [activator, single point]	–
CCOC(=O)c1c(N)n(CCOC(=O)c2cccs2)c2nc3ccccc3nc12	inactive	–
COCCn1nnnc1C(c1ccccc1OC)N1CCN(c2ccccc2F)CC1 (centres undefined)	inactive	–
Cc1ccc(Cl)cc1NC(=S)N(Cc1cccnc1)Cc1ccccc1Cl	inconclusive [activator, single point]	–
c1ccc(CSc2ncnc3ccccc23)cc1	inconclusive [activator, single point]	–
CC(C)C[C@@H](COCc1cccc(C(F)(F)F)c1)N1CCN(C(=O)c2ccc(C(F)(F)F)cc2)CCC1=O	inconclusive [activator, single point]	–
Cc1ccc(C2=NS(=O)(=O)N(C)C(C(=O)NC3CCCCC3)=C2)cc1	inconclusive [activator, single point]	–
C=CCN1C(=O)C(Cc2ccc(OCC)cc2)SC1=Nc1ccc(C(=O)O)cc1 (centres undefined)	inconclusive [activator, partial curve]	–
O=C(NCCN1C(=O)S/C(=C\c2ccc(Cl)cc2Cl)C1=O)C1=COCCO1	inconclusive [activator, single point]	–
C=C1C=C(C(F)F)n2ncc(C(=O)NCCc3ccccc3OC)c2N1	inactive	–
Cc1c(C)c2cc(Cl)c(OCC(=O)N3CCN(c4ccc(F)cc4)CC3)cc2oc1=O	inactive	–
CC(=O)Oc1ccc(N2C(=O)C3C4C=CC(C5CC45)C3C2=O)cc1[N+](=O)[O-] (centres undefined)	inconclusive [activator, partial curve]	–
CCCCOCCCNC(=O)C[C@@H]1C[C@@]2(C(=O)OC)CCCCC=C2N(Cc2cccc3ccccc23)C1=O	inconclusive [activator, single point]	–
